This is an account of results in the supplement of paper PMC4604168 (melanoma cell lines).

Some of the results follow. Most values come without repeats; read them as rough.
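Further: cells treated in 1,536-well plates, then fixed and DAPI-stained, with nuclei counted from automated high-throughput microscope images.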

In this assay the test system is WM1745. Briefly: cell count relative to DMSO control; melanoma cells; higher = more viable cells. Conditions: library dose: standard library concentration; 72 h.
`COc1cc([C@@H]2c3cc4c(cc3[C@@H](O[C@@H]3O[C@@H]5CO[C@@H](C)O[C@H]5[C@H](O)[C@H]3O)[C@H]3COC(=O)[C@H]23)OCO4)cc(OC)c1O` [etoposide] + NC(=O)Nc1cc(-c2cccc(F)c2)sc1C(=O)N[C@H]1CCCNC1 [AZD7762] (first compound 0.1 µM, partner dose 0.1 µM): the cell count came to 72.9%.
Under `Cn1cnc2c(F)c(Nc3ccc(Br)cc3Cl)c(C(=O)NOCCO)cc21` [selumetinib] + CN(C)S(=O)(=O)c1ccc2c(c1)/C(=C/c1cc3c([nH]1)CCCC3)C(=O)N2 [SU6656] (first compound 0.075 µM, partner dose 2 µM) stands 44.2%; under `C[C@]1(O)C[C@@H](c2nc(-c3ccc4ccc(-c5ccccc5)nc4c3)c3c(N)nccn32)C1` + CO[C@@H]1[C@H](N(C)C(=O)c2ccccc2)C[C@H]2O[C@]1(C)n1c3ccccc3c3c4c(c5c6ccccc6n2c5c31)C(=O)NC4 [Midostaurin] (first compound 2 µM, partner dose 0.4 µM), 40.9%; under `Cn1cnc2c(F)c(Nc3ccc(Br)cc3Cl)c(C(=O)NOCCO)cc21` [selumetinib] + C[C@@H]1CCN(C(=O)CC#N)C[C@@H]1N(C)c1ncnc2[nH]ccc12 [CP690550] (first compound 0.075 µM, partner dose 5 µM), 89.3%.
Under `Cn1cnc2c(F)c(Nc3ccc(Br)cc3Cl)c(C(=O)NOCCO)cc21` [selumetinib] + OCCn1cc(-c2cnc3nnn(Cc4ccc5ncccc5c4)c3n2)cn1 [PF04217903] (first compound 0.075 µM, partner dose 5 µM) stands 85.8%.
